# Data taken from article PMC4336329 (PLoS ONE, 2015).
# Out of some 310,000 compounds screened, about 14,000 (4.5%) showed an effect of 50% or more. Effects have a minus sign here. The list shows a part of the results.
# Target: human ether-à-go-go-related gene (hERG) potassium channel (human, UniProt Q12809)
# Assay: primary screen, population patch clamp on CHO cells stably expressing hERG
# 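Note: peak tail current of the secondary pulse compared with the same well before compound.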
# Sequence of human ether-à-go-go-related gene (hERG) potassium channel (Q12809 whole entry, looked up): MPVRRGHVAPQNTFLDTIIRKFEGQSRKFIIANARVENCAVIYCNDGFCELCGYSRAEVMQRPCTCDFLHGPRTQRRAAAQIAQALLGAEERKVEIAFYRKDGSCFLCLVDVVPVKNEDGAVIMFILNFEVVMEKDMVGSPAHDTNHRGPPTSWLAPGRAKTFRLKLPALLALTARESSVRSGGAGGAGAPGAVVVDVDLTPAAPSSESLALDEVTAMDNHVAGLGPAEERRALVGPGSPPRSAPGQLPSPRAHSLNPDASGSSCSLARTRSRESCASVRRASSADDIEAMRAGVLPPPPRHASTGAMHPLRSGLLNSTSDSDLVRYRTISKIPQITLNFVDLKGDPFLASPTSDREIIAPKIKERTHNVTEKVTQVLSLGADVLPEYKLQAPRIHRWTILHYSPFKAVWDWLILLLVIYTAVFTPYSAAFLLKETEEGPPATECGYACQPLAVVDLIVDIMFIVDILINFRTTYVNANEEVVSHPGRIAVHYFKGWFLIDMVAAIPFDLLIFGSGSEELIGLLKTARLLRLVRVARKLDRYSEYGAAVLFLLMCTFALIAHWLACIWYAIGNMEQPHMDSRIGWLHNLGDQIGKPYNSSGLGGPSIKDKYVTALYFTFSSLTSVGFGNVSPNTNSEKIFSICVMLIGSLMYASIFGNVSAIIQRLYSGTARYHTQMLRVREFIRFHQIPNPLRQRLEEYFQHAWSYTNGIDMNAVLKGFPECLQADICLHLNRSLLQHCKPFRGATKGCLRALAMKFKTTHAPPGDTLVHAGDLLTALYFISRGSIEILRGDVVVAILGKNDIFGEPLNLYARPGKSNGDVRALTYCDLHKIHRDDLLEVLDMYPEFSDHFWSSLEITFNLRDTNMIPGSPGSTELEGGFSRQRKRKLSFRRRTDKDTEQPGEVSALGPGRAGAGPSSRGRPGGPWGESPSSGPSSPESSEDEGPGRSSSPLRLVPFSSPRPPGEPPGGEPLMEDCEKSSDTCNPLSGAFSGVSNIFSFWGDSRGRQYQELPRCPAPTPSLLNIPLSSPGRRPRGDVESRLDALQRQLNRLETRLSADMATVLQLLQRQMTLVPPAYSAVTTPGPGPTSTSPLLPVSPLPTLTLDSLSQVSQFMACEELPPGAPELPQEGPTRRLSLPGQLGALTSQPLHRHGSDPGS
row,SMILES,"hERG current change (%, negative = inhibition) at 10uM [%]"
1,Cn1c(=O)n(CC(=O)O)c(=O)c2c1nc1n2CCS1,-5.66
2,O=c1[nH]c(C2CCN(S(=O)(=O)Cc3ccccc3)CC2)nc2c1nnn2Cc1cccc(Cl)c1,-0.44
3,COCCNC(=O)/C(C#N)=C/c1ccc(OCC(=O)NC2CCCCC2)cc1,-0.168
4,CN(C)C(=O)CCC(=O)N1CCCCC1C(=O)Nc1ccc(Oc2ccccc2F)cc1 (centres unmarked),-43.9
5,O=C(Cc1ccc([N+](=O)[O-])cc1)Nc1cccnc1,-14.3
6,CCCN(CC(=O)Nc1ccccc1OC)C(=O)c1cc(-c2ccccc2)nn1-c1ccccc1,-2.6
7,Cc1cccc(C(=O)Nc2scc(CC(C)C)c2C(=O)O)c1,25.6
8,Cc1[nH]c2ccccc2c1CN1CCC(CO)(Cc2ccccc2)CC1,-47.6
9,CCOC(=O)C1CCCN(C(=O)c2cccc(S(=O)(=O)N3CC(C)OC(C)C3)c2)C1 (centres unmarked),5.34
10,CC(C(N)=O)N1CC(c2ccc(Cl)cc2)CC1=O (centres unmarked),-10.8
11,CCc1ccc(NC(=O)COc2coc(CN3CCc4ccccc4C3)cc2=O)cc1,-20.8
12,Cc1cccc(C)c1NC(=O)c1ccc(-c2ccc(Cl)cc2Cl)o1,-10.8
13,CCCC(=O)N1CC(=O)Nc2ccc(F)cc2C1c1ccccc1 (centres unmarked),-2.26
14,CS(=O)(=O)Cc1ccc(C(=O)NC2CCCc3ccccc32)cc1 (centres unmarked),8.72
15,Cc1cccc(N2CCN(C(=O)Cn3c(=O)[nH]c4ccsc4c3=O)CC2C)c1 (centres unmarked),12.7
16,CCCCCOC(=O)NC1CCS(=O)(=O)C1 (centres unmarked),14
17,Cc1ccccc1S(=O)(=O)Nc1nc2ccccc2nc1NCCO,18.5
18,CC(C)Cn1c(Cc2ccccc2)n[nH]c1=S,-3.27
19,CC(C)CNC(=S)N1CCN(c2nc3ccccc3s2)CC1,44.8
20,Oc1ccc(Cl)cc1Cc1cc(Cl)ccc1O,14.3
21,NC1=NCC(O)=C1c1nc2ccccc2[nH]1,11.5
22,Cc1cc(C)n(CCNC(=O)C2CCC(=O)N(CC3CCCCC3)C2)n1 (centres unmarked),17.5

row,SMILES,"hERG current change (%, negative = inhibition) at 10uM [%]"
1,O=C(NC1CCCC1)c1ccc(COc2ccccc2Br)o1,-41.4
2,O=C(c1ccccn1)N1CCN(S(=O)(=O)c2cccc(Br)c2)CC1,-6.02
3,O=C(O)C(Cc1c[nH]c2ccccc12)NS(=O)(=O)c1cccc2nsnc12 (centres unmarked),2.69
4,CC(CCc1ccccc1)NC(=O)CSc1ccccc1 (centres unmarked),-2.1
5,O=C(NNc1ccccc1Br)C(=O)n1ccc2ccccc21,2.04
6,CC(C)(C)c1cc(Br)ccc1OCC(=O)Nc1ncn[nH]1,0.994
7,Cc1ccccc1N1CCN(S(=O)(=O)c2ccc3oc(=O)ccc3c2)CC1,-14.8
8,O=C(NC1CCN(C(=O)N2c3ccccc3Sc3ccccc32)CC1)c1ccccc1Cl,-4.72
9,Cc1cc(NC(=O)c2ccccc2O)nc(C)n1,13.5
10,CCOC(=O)/C=C(/C)N1N=C(c2ccc(OC)cc2)CC1c1cccc([N+](=O)[O-])c1 (centres unmarked),13.5
11,COc1ccc(NC(=S)Nc2ccc(N)c([N+](=O)[O-])c2)cc1,10.6
12,CC(=O)Nc1ccc(S(=O)(=O)N2CCc3cc4c(cc3C2)OCCCO4)cc1,18.6
13,COc1ccc(CNC(=O)CCC(=O)c2ccc(C)cc2)cc1OC,14.9
14,CCOc1ccccc1NC(=O)CNC(=O)Cc1ccccc1,-3.12
15,COc1ccccc1OCCNC(=O)c1ccco1,1.64
16,CCOC(=O)c1c(C(=O)OCC)c(C)n(CCc2ccccc2)c1C,4.09
17,CCOC(=O)c1cc(C#N)c(N2CCN(c3ccccn3)CC2)nc1-c1ccccc1,-14.4
18,C[C@H](NCc1c[nH]c2ccccc12)c1ccccc1,0.641
19,COc1ccc(C(=O)CSc2nccn2C)cc1,25.4
20,Cc1cc(C)c2nc(C(F)(F)F)nc(NCCCN3CCCC3=O)c2c1,11.1
21,CN(C)c1ccc(NC(=O)CSc2nc(C3CC3)nc3ccccc23)cc1,5.65
22,C=CCc1c(C)[nH]c2ccc(C)cc2c1=O,25.1
